Experimental findings from PubChem BioAssay AID485344 (National Center for Advancing Translational Sciences (NCATS), 2010) are described below.

Several values for one entry are separate records, joined by “and”; a condition that tells them apart may be missing. Identical values can stand only once. Out of some 340,000 compounds screened, about 6,900 (2%) were called active. No stated cut-off is given here; in the data, active means inhibition above about 30%; inactive means below that, where a call was filed. The entries are a selection whose mix differs from that of the whole data set. Where no call is shown, the source filed none.

UniProt P14416, sequence (P14416 whole entry, looked up): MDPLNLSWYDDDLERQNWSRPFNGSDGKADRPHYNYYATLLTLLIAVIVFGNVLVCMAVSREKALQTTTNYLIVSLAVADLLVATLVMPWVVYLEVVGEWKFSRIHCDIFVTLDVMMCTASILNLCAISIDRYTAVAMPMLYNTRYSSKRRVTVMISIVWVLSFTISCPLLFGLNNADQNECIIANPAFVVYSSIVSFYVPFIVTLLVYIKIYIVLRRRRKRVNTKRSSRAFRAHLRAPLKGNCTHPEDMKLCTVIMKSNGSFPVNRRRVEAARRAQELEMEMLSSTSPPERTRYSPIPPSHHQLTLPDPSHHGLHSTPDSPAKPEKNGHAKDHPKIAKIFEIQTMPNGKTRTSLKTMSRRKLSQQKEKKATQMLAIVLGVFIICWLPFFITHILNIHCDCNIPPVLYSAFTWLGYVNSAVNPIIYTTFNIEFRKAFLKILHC

The target of the assay is D(2) dopamine receptor (Homo sapiens) (UniProt P14416). In words: HTS Assay for Allosteric Antagonists of the Human D2 Dopamine Receptor: Primary Screen for Antagonists. Further: 0% is about no effect. As to conditions: HEK293 TREx D2 cells, calcium flux, dopamine EC80; at 10 µM; stronger effect = higher value. In short, it runs like this:
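Calcium mobilization kinetics were recorded at 1 s intervals in tetracycline-induced HEK293 T-REx D2 cells, first for 180 s after compound addition and then 180 s after EC80 dopamine.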
Background: A change in cytosolic calcium serves as a functional read-out for many receptors and channels.
On to `O=C(C1CCC(Cn2c(=O)c3sccc3n(Cc3ccccc3F)c2=O)CC1)N1CCOCC1` (stereo unspecified), for which the inhibition (usually the drop in the measured response relative to a control, in per cent) was -0.0173%.
Then `COc1cc(NC(=O)c2cc3c(=O)n(Cc4ccco4)ccc3nc2C)cc(OC)c1OC`, with 5.38%.
For `O=C(NCc1ccco1)c1ccc(S(=O)(=O)N2CCCc3ccccc32)cc1` the value was active: 40%; for `Cc1ccc(C#N)c(SCCN2CCCCC2)n1`, active: 33.5%.
For `CCOc1ccc(NC(=O)CN2C(=O)c3ccccc3Sc3ccc(C(=O)OC)cc32)cc1` the value was 11.1%.
`Cc1ccc2c(c1)c(=O)c1ccccc1n2CCCC(=O)Nc1ccc(Cl)c(Cl)c1`: the inhibition was 5.91%.
For `Cc1cc(C)cc(-n2c(SCC(=O)NCc3ccc(F)cc3)nc3c([nH]c4ccccc43)c2=O)c1` the value was -3.62%.
For `COc1cc(NC(=O)CSc2nc(-c3ccccc3)no2)cc(OC)c1` the value was 4.22%; for `COc1ccccc1NC(=O)c1c(C)cc(C)nc1SCC(=O)Nc1ccc(C)cc1`, -6.05%; for `COc1ccc(NC(=O)Cn2nnc(C(=O)NCc3ccco3)c2N)c(OC)c1`, 8.09%.
Then `Cc1ccc(N2CCN(C(=O)c3cn(C)c4ccc(S(=O)(=O)N5CCCC5)cc4c3=O)CC2C)cc1` (stereo unspecified), with -20.1%; and `Cc1cc(Nc2cccc(Br)c2)n2c(nc3ccccc32)c1C#N`, with -9.86%; and `CC(=O)Nc1ccc(S(=O)(=O)NCC2CCC(C(=O)NCc3ccccc3)CC2)cc1` (stereo unspecified), with -28.3%.
In the case of `CCOc1cc(C(Nc2cc(C)ccn2)c2ccc3cccnc3c2O)ccc1OC` (stereo unspecified), the inhibition amounted to 14.1%.
For `CN(CCOc1ccccc1)CCOc1ccccc1` the value was active: 37.1%.
For `O=C(CSc1nc2c([nH]c3ccccc32)c(=O)n1-c1ccc(Cl)cc1)NC1CCCCC1` the value was -1.71%; for `CCc1ccc(NC(=O)N2CCN(Cc3nc4ccc(C)cc4o3)CC2)cc1`, -24.2%; for `CCCCNC(=O)Nc1ccc2c(c1)N(C)C(=O)c1ccccc1S2`, 21% and active: 46.3%.
For `CCN(CC)C(=O)CN1C(=O)COc2ccc(S(=O)(=O)N3CCOCC3)cc21` the value was -6.12%; for `COC(=O)C1=C(C)NC(=O)C1(NC(=O)c1ccc(Cl)cc1)C(F)(F)F` (stereo unspecified), -16.2%; for `CC1=Nc2cc(C(=O)NCc3ccc(C)cc3)ccc2Sc2ccc(Cl)cc21`, 5.53%.
`CCN1CCC(N(Cc2cccc(OC)c2)C(=O)Nc2cccc(C)c2C)CC1`: the inhibition worked out at 4.72%.
For the compound `COc1ccc(C2N=C(N)Nc3nc4ccccc4n32)c(OC)c1OC` (stereo unspecified), the inhibition turned out to be 4.43%.
Then `CCOC(=O)c1sc(NC(=O)C(C)Oc2ccc(OC)cc2)c(C(=O)OCC)c1C` (stereo unspecified), with 10.5%; and `COc1ccc(C(=O)Nc2cc(-c3ccccc3)nn2-c2ccccc2)cc1`, with 5.09%; and `COc1ccc(C)cc1NC(=O)CN1C(=O)COc2ccc(S(=O)(=O)N3CCOCC3)cc21`, with 18.7%.
Then `CCOC(=O)c1cccc(NC(=O)c2cc3cc4cc(OC)ccc4nc3s2)c1`, with -15.4%.
For `Cc1ccc(NC(=O)COc2ccc(-c3nn(C)c(=O)c4ccccc34)cc2)cc1` the value was -1.99%; for `O=C(COCc1cc(-c2cccs2)on1)Nc1cc(Cl)ccc1O`, 9.34%; for `Cc1ccc(CNC(=O)C2CCN(S(=O)(=O)Cc3ccccc3)CC2)cc1`, 2.69%.
For `CN(C)c1ccc(CNC(=O)C2CCCN(S(=O)(=O)c3ccc4c(ccn4C)c3)C2)cc1` (stereo unspecified), the inhibition amounted to 7.66%.
Consider `Cc1ncc(CO)c2c1Oc1nc(-c3ccccc3)nc(SCC(=O)N3CCCCC3)c1C2`, for which the inhibition came to 1.79%.
For `CCN(CC)C(=O)Cn1c(=O)n(Cc2ccc(C(=O)NCc3ccc(C)cc3)cc2)c(=O)c2ccccc21` the value was 9.11%; for `Cc1ccn2c(=O)nc(SCC(=O)Nc3cc(C)on3)nc2c1`, active: 41.6%.
For `CS(=O)(=O)N1CCc2cc(C(=O)Nc3ccc(Cl)c(C(F)(F)F)c3)ccc21` the value was -8.77%.
For `Cc1nc2ncnn2c(C)c1CCC(=O)NCCCN1CCN(c2cccc(Cl)c2)CC1` the value was active: 72.5%; for `CCOCCCNC(=O)c1cc2c(=O)n(C)c3ccccc3c2n1C`, 2.86%; for `Cc1ccc(NC(=O)c2cn3c4c(ccc(Cl)c4c2=O)OC(C)C3)cc1C` (stereo unspecified), 9.92%.
Regarding `O=C(CSc1cccc(C(F)(F)F)c1)Nc1ccc(Cl)cc1Cl`, the inhibition was active: 48.6%.
For `COc1ccc(NC(=O)Cn2c(=O)n(-c3cccc(C)c3)c(=O)c3c2c2cc(C)ccc2n3C)cc1Cl` the value was -5.31%.
Turning to `CCOc1cc2sc(N3CCC(C(=O)Nc4ccccc4C(=O)OC)CC3)nc2cc1Br`, the inhibition was determined as 4.13%.
Then `O=C(C1CCC(CNS(=O)(=O)c2ccc(Br)s2)CC1)N1CCN(c2ccccc2Cl)CC1` (stereo unspecified), with 1.34%.
For `O=c1oc2ccccc2n1CCCOc1ccccc1Cl`, the inhibition is -5.03%.
For `COc1cccc(N2CCN(C(=O)CCS(=O)(=O)c3ccc4c(c3)CC(=O)N4C)CC2)c1` the value was 0.851%.
For `O=C(Cn1c(=O)oc2cc(S(=O)(=O)N3CCCC3)ccc21)NCc1ccc(Cl)cc1` the value was -2.38%.
Then `COc1cccc(NC(=O)CSc2nc(=O)n(Cc3ccccn3)c3c2CCC3)c1`, with 14.9%; and `O=c1oc2ccc3ccccc3c2cc1-c1nnc(Nc2ccc(Cl)cc2Cl)s1`, with 8.13%; and `COc1ccc(CCNC(=O)c2ccc3c(c2)N=C(C)c2cc(C)ccc2S3)cc1OC`, with -15.4%.
On to `CCc1ccc(NC(=O)Cn2c(=O)c(CNc3ccccc3)cc3cc(OC)c(OC)cc32)cc1`, for which the inhibition is -9.68%.
For `Cc1cccc(NC(=O)C2CCCN(S(=O)(=O)c3c(C)[nH]c(=O)[nH]c3=O)C2)c1C` (stereo unspecified) the value was 3.03%; for `COc1ccc(-c2nc3ccccc3o2)cc1NC(=O)C(C)(C)Oc1ccc(Br)cc1`, 0.583%.
For `CC(=O)c1cccc(NC(=O)[C@H](Cc2ccccc2)N2Cc3ccccc3C2=O)c1` the value was 21.2%.
Then `CCC(NC(=O)Nc1ccc(OC)c(OC)c1)c1c(-n2cccc2)sc2c1CCN(C)C2` (stereo unspecified), with -4.98%; and `COc1ccc(N2CC(NC(=O)C3CC3)CC2=O)cc1` (stereo unspecified), with 15.8%.
As to `COc1ccccc1C(=O)NCCSc1c(C)[nH]c2ccccc12`, the inhibition is -9.76%.
With `CC(C)(C)c1ccc(OCC(=O)N/N=C/c2cc(Br)ccc2OC(=O)c2ccco2)cc1`, the inhibition was active: 34%.
Then `CCc1nn2c(=O)cc(COC(=O)c3ccccc3NC(=O)COc3ccc(F)cc3)nc2s1`, with -12.4%; and `COCCNC(=O)Cn1cnc2sc(C)c(S(=O)(=O)N3CCN(c4ccccc4OC)CC3)c2c1=O`, with 17.9%.
For `CCOC(=O)c1[nH]c(C)c(CCC(=O)Nc2cccc(C(F)(F)F)c2)c1C` the value was 5.03%.
For `CC(CNC(=O)c1nnc(Cc2cccc(F)c2)o1)c1ccccc1` (stereo unspecified) the value was 8.11%; for `COc1cc(CNCCSc2nnnn2C)ccc1OCc1ccc(F)cc1`, -14.1%.
